Measured values taken from the supplement of paper PMC4967469.

Legend:
Assay in all cases: Viability of human cancer cell lines after 72 h of drug (GDSC screen)
[1] = compound: C/C=C(/C)C(=O)O[C@H]1C(C)=C2[C@H]([C@@H]1OC(=O)CCCCCCC)[C@@](C)(OC(C)=O)C[C@H](OC(=O)CCC)[C@@]1(O)[C@H]2OC(=O)[C@@]1(C)O [Thapsigargin]; details: top dose 0.512 µM; top dose inferred
Protocol: (§1)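 Human cancer cell lines in 384-well plates, medium with 10% serum, drug for 72 h over a 256-fold dose range (nine 2-fold or five 4-fold steps up to the top dose). Adherent lines were fixed and stained with the nucleic acid dye Syto60, suspension lines read with resazurin; signal relative to control wells, capped at 0 and 100%. One two-parameter sigmoid per drug and line, fitted in a mixed model over all curves with the slope shared within a line.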

[2] = compound: C=CC(=O)Nc1cc(-n2c(=O)ccc3cnc4ccc(-c5cn[nH]c5)cc4c32)ccc1C [QL-X-138]; details: top dose 10.24 µM; top dose inferred
Protocol: as §1

[3] = compound: COc1nc(C)cnc1NS(=O)(=O)c1cccnc1-c1ccc(-c2nnco2)cc1 [Zibotentan]; details: top dose 20 µM; top dose inferred
Protocol: as §1

[4] = compound: COc1cc2ncnc(-n3nc(-c4ccccn4)nc3N)c2cc1OC [CP466722]; details: top dose 16 µM; top dose inferred
Protocol: as §1

[5] = compound: COc1cc(N2CCC(O)CC2)ccc1Nc1cc(Nc2ccccc2S(=O)(=O)C(C)C)c2cc[nH]c2n1 [MPS-1-IN-1]; details: top dose 20 µM; top dose inferred
Protocol: as §1

[6] = compound: COc1cc(O)c2c(c1)/C=C/C[C@H](O)[C@H](O)C(=O)/C=C\C[C@H](C)OC2=O [(5Z)-7-Oxozeaenol]; details: top dose 10 µM; top dose inferred
Protocol: as §1

[7] = compound: Cc1ccc(F)c(NC(=O)Nc2ccc(-c3cccc4[nH]nc(N)c34)cc2)c1 [ABT-869]; details: top dose 1.024 µM; top dose inferred
Protocol: as §1

[8] = compound: CCn1c(-c2nonc2N)nc2cnc(Oc3cccc(NC(=O)c4ccc(OCCN5CCOCC5)cc4)c3)cc21 [GSK269962A]; details: top dose inferred
Protocol: as §1

[9] = compound: Cc1ccc(-c2c(C(=O)CCl)n(CCCO)c3ncnc(N)c23)cc1 [CMK]; details: top dose 4 µM; top dose inferred
Protocol: as §1

[10] = compound: C[C@]1(c2nc3c(C(N)=O)cccc3[nH]2)CCCN1 [ABT-888]; details: top dose 5 µM; top dose inferred
Protocol: as §1

[11] = compound: Cc1cnc(-c2cnc(NCCNc3ccc(C#N)cn3)nc2-c2ccc(Cl)cc2Cl)[nH]1 [CHIR-99021]
Protocol: as §1

[12] = compound: O=c1cc(-c2cccc3c2Sc2ccccc2S3)oc(N2CCOCC2)c1 [KU-55933]; details: top dose 10 µM
Protocol: as §1

[13] = top dose 2.5 µM, screen: GDSC drug entry 127
[14] = top dose 5 µM, screen: GDSC drug entry 1192
[15] = top dose 2.56 µM, screen: GDSC drug entry 154
[16] = top dose 10 µM, screen: GDSC drug entry 1241, top dose inferred

Row | Cell Line | AUC [1] | IC50 [1] [µM] | AUC [2] | IC50 [2] [µM] | AUC [3] | IC50 [3] [µM] | AUC [4] | IC50 [4] [µM] | AUC [5] | IC50 [5] [µM] | AUC [6] | IC50 [6] [µM] | AUC [7] | IC50 [7] [µM] | AUC [8, 13] | IC50 [8, 13] [µM] | AUC [8, 14] | IC50 [8, 14] [µM] | AUC [9] | IC50 [9] [µM] | AUC [10] | IC50 [10] [µM] | AUC [11, 15] | IC50 [11, 15] [µM] | AUC [11, 16] | IC50 [11, 16] [µM] | AUC [12] | IC50 [12] [µM]
1 | 8-MG-BA (glioma, adherent) | 0.181 | 0.00383 | 0.567 | 0.965 | 0.987 | > 20 | 0.763 | 5.41 | 0.906 | > 20 | 0.664 | 1.73 | 0.974 | > 1.02 | 0.955 | > 2.5 | 0.719 | 1.25 | 0.873 | 3.45 | 0.978 | > 5 | 0.972 | > 2.56 | 0.928 | > 10 | 0.954 | > 10
2 | 697 (lymphoblastic leukaemia, suspension) | 0.063 | < 0.002 | 0.341 | 0.257 | 0.99 | > 20 | 0.35 | 0.421 | 0.82 | 8.66 | 0.578 | 0.977 | 0.97 | > 1.02 | 0.667 | 0.408 | 0.511 | 0.333 | 0.525 | 0.288 | 0.988 | > 5 | 0.982 | > 2.56 | 0.861 | 5.88 | 0.883 | 7.05
3 | ALL-SIL (T-cell leukaemia, suspension) | 0.087 | < 0.002 | 0.493 | 0.614 | 0.932 | > 20 | 0.453 | 0.76 | 0.756 | 5.99 | 0.629 | 1.34 | 0.944 | > 1.02 | 0.776 | 0.861 | 0.81 | 2.2 | 0.827 | 2 | 0.989 | > 5 | 0.958 | > 2.56 | 0.869 | 7.15 | 0.989 | > 10
4 | ATN-1 (T-cell lymphoblastic leukaemia, suspension) | 0.527 | 0.0376 | 0.548 | 0.855 | 0.986 | > 20 | 0.579 | 1.62 | 0.795 | 8.6 | 0.748 | 3.03 | 0.975 | > 1.02 | 0.955 | > 2.5 | 0.905 | > 5 | 0.962 | > 4 | 0.949 | > 5 | 0.98 | > 2.56 | 0.952 | > 10 | 0.514 | 0.679
5 | BB30-HNC (head and neck, adherent) | 0.24 | 0.00578 | 0.765 | 3.68 | 0.985 | > 20 | 0.808 | 8.07 | 0.808 | 10.1 |  |  | 0.98 | > 1.02 | 0.939 | > 2.5 |  |  | 0.783 | 1.64 | 0.946 | > 5 | 0.978 | > 2.56 |  |  | 0.908 | > 10
6 | BL-41 (Burkitt lymphoma, suspension) | 0.075 | 0.00213 | 0.228 | 0.134 | 0.994 | > 20 | 0.415 | 0.621 | 0.796 | 6.96 | 0.622 | 1.24 | 0.994 | > 1.02 | 0.932 | > 2.5 | 0.844 | 2.4 | 0.785 | 1.3 | 0.994 | > 5 | 0.89 | 1.73 | 0.818 | 4.01 | 0.934 | > 10
7 | C2BBe1 (large intestine, adherent) | 0.3 | 0.00803 | 0.744 | 3.57 | 0.952 | > 20 | 0.906 | > 16 | 0.881 | > 20 | 0.781 | 4.73 | 0.984 | > 1.02 | 0.986 | > 2.5 | 0.906 | > 5 | 0.847 | 3.56 | 0.979 | > 5 | 0.984 | > 2.56 | 0.948 | > 10 | 0.962 | > 10
8 | CCRF-CEM (lymphoblastic leukaemia, suspension) | 0.504 | 0.0328 | 0.409 | 0.376 | 0.986 | > 20 | 0.639 | 2.26 | 0.825 | 9.52 | 0.741 | 2.65 | 0.991 | > 1.02 | 0.923 | > 2.5 | 0.766 | 1.56 | 0.782 | 1.39 | 0.976 | > 5 | 0.959 | > 2.56 | 0.965 | > 10 | 0.883 | 7.77
9 | CTB-1 (B-cell lymphoma, suspension) | 0.462 | 0.0243 | 0.343 | 0.199 | 0.979 | > 20 | 0.891 | > 16 | 0.929 | > 20 | 0.759 | 4.72 | 0.979 | > 1.02 | 0.967 | > 2.5 | 0.906 | > 5 | 0.743 | 1.64 | 0.979 | > 5 | 0.979 | > 2.56 | 0.976 | > 10 | 0.928 | > 10

The IC50 comes from the fitted curve, where viability falls to half of the control; a limit (>, <) means that the fit lies beyond the doses tested. The AUC spans the tested range (256-fold, ending at the top dose) of the same fit; it is 1 without any effect and falls as sensitivity rises. For part of these data: Where the top dose is marked as inferred, it comes from the curve model; the source does not state it. For part of these data: Where an entry number is given, a second screen of the drug exists; the two often differ.
